Measured values as given in PubChem BioAssay (NCATS).
Inconclusive results, whose numbers are uncertain, are shown with a selection of clear calls. A potency beside an inconclusive call is a rough fit, not a confirmed value. Activity calls are given as the source filed them. Calls follow the shape of the dose curve; as a rule, active = well fitted cell-killing curve with a large enough effect; inconclusive = small, poorly fitted or top-dose-only effect, or effect the other way; inactive = no such curve, though single readings can be large or run the other way.

Legend:
[1] = Viability qHTS for spleen associated tyrosine kinase inhibitor (SYKi) naive MV4-11 cells (AID 1963823); details: MV4-11 AML viability, CellTiter-Glo luminescence, 72 h; series mostly up to 45 µM; also: nearly all actives have a fitted effect of over 40% in size
Procedure, shortened: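 CellTiter-Glo luminescence, 10 min room-temperature incubation, gave viability. Cells: naive MV4-11 (500/well), treated 72 hr at 37 C, 5% CO2.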

[2] = Viability qHTS for spleen associated tyrosine kinase inhibitor (SYKi) drug resistant MV4-11 cells (AID 1963824); also: nearly all actives have a fitted effect of over 35% in size
Procedure, shortened: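 SYK inhibitor-resistant MV4-11 AML cells, 500 per well, added to predispensed compounds and incubated 72 hr at 37 C, 5% CO2. Viability measured by CellTiter-Glo luminescence after 10 min at room temperature.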
Potency is read from the fitted curve at half-maximal effect; tags tell the direction and shape of the fitted curve.

Compound	Potency [1]	Potency [2]
CCNCc1nc2c(N)nc3ccccc3c2n1CC(C)(C)O	inconclusive: 26.3 µM [cytotoxic, single point]	inconclusive: 23.5 µM [cytotoxic, partial curve]
CC(=O)O[C@H]1C(=O)[C@@]2(C)[C@H]([C@H](OC(=O)c3ccccc3)[C@]3(O)C[C@H](OC(=O)[C@H](O)[C@@H](NC(=O)c4ccccc4)c4ccccc4)C(C)=C1C3(C)C)[C@]1(OC(C)=O)CO[C@@H]1C[C@@H]2O	inconclusive: 0.0049 µM [cytotoxic, full curve]	active: 0.0044 µM
COc1cccc(CN(C(=O)CC(C)(C)C)[C@H]2C[C@H](C(=O)N3CCNCC3)N(Cc3ccc4c(c3)OCO4)C2)c1	active: 18.4 µM	active: 16.4 µM
COc1cc(C(=O)OC[C@@]2(O)CO[C@@H](O[C@H]3[C@H](Oc4ccc(O)cc4)O[C@H](CO)[C@@H](O)[C@@H]3O)[C@@H]2O)cc(OC)c1O	inactive	inactive
Nc1cccc(CNC(=O)c2ccc(Oc3ccc(OCc4cccc(F)c4)cc3)nc2)c1	inconclusive: 11.6 µM [cytotoxic, partial curve]	active: 16.4 µM
COC(=O)C1=CO[C@@H](O[C@@H]2O[C@H](CO)[C@@H](O)[C@H](O)[C@H]2O)[C@@H]2[C@@](C)(O)[C@@H](OC(=O)/C=C/c3ccc(O)cc3)C[C@]12O	inactive	inactive
CCn1c(=O)c2cc(C(N)=O)c(N)nc2n(C2CC2)c1=O	inactive	inconclusive: 16.4 µM [cytotoxic, partial curve, poor fit]
